{"source": "paper PMC4336329", "about": "(PLoS ONE, 2015)", "note": "Hit rate of the full screen: of about 310,000 compounds, about 14,000 (4.5%) showed an effect of 50% or more. The effect is printed as a negative number. The list shows a part of the results.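 Further: peak tail current of the secondary pulse compared with the same well before compound.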", "data": [{"biological_target": "human ether-à-go-go-related gene (hERG) potassium channel (human, UniProt Q12809)", "sequence (Q12809 whole entry, looked up)": "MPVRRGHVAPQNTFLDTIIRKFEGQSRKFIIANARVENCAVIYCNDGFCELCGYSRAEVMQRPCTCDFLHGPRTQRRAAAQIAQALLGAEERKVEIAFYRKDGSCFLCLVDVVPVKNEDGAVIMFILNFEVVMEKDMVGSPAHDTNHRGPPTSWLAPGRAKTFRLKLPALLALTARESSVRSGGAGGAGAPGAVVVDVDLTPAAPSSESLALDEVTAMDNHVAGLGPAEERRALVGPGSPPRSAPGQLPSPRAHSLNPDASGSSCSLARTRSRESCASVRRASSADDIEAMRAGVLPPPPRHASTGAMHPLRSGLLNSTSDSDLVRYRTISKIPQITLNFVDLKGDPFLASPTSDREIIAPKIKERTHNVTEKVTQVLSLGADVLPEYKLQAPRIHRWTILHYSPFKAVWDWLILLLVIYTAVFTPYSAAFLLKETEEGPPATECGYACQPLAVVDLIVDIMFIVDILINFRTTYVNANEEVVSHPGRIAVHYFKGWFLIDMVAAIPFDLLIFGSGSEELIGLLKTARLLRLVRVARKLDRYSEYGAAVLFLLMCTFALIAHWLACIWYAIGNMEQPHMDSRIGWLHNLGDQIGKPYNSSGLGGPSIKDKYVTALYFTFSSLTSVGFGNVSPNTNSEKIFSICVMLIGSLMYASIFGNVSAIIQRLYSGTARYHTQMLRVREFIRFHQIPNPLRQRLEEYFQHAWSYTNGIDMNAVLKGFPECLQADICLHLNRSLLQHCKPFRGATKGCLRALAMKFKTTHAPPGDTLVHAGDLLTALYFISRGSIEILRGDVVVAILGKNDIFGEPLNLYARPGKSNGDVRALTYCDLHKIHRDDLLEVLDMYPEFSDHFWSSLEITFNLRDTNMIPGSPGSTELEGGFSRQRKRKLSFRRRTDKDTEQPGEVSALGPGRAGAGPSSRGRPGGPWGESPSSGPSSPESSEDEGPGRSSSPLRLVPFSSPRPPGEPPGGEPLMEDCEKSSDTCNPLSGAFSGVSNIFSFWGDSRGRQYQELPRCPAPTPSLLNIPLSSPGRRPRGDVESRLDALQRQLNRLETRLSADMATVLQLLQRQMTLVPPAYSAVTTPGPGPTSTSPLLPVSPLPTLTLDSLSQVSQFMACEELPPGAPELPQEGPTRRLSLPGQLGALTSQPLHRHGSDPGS", "test": "primary screen, population patch clamp on CHO cells stably expressing hERG", "units": {"hERG current change (%, negative = inhibition) at 10uM": "%"}, "values": [{"smiles": "COc1ccc(-c2cc(=O)oc3cc(OCC(=O)N(C)C4CCS(=O)(=O)C4)ccc23)cc1", "note": "(stereo not shown)", "hERG current change (%, negative = inhibition) at 10uM": -27.3}, {"smiles": "CCOc1ccc(N(CC(=O)Nc2ccc(OC)cc2)S(=O)(=O)c2c(C)noc2C)cc1", "hERG current change (%, negative = inhibition) at 10uM": 4.62}, {"smiles": "O=C(Nn1c(-c2ccccc2)nc2ccccc2c1=O)C1CCC1", "hERG current change (%, negative = inhibition) at 10uM": -6.88}, {"smiles": "O=C1NC(=O)C2(COC(c3ccncc3)OC2)S1", "note": "(stereo not shown)", "hERG current change (%, negative = inhibition) at 10uM": 12.9}, {"smiles": "Cl.O=C(CC1=NC2(CCCC2)Cc2ccccc21)N1CCOCC1", "hERG current change (%, negative = inhibition) at 10uM": -15}, {"smiles": "Cc1ccccc1Nc1ccc(S(=O)(=O)N2CCOCC2)cc1[N+](=O)[O-]", "hERG current change (%, negative = inhibition) at 10uM": -8.45}, {"smiles": "C[N+]1(C)C2CCC1CC(OC(=O)C(CO)c1ccccc1)C2.[I-]", "note": "(stereo not shown)", "hERG current change (%, negative = inhibition) at 10uM": 18.3}, {"smiles": "COc1cc(OC)cc(C(=O)Nc2ccc3c(c2)CCCN3C(=O)c2cccs2)c1", "hERG current change (%, negative = inhibition) at 10uM": -2.41}, {"smiles": "CC1(C)CN=C(N(Cc2ccccc2)C(=O)Nc2ccccc2)S1", "hERG current change (%, negative = inhibition) at 10uM": 5.38}, {"smiles": "Cc1oc(-c2ccccc2)cc1C(=O)NCc1ccncc1", "hERG current change (%, negative = inhibition) at 10uM": 4.82}, {"smiles": "COc1ccc(NC2CCCN(C(=O)CCOc3ccccc3)C2)cc1", "note": "(stereo not shown)", "hERG current change (%, negative = inhibition) at 10uM": -17.1}, {"smiles": "COc1cc(CNCc2cccc(OC)c2OC)cc(OC)c1.O=C(O)C(=O)O", "hERG current change (%, negative = inhibition) at 10uM": 6.42}, {"smiles": "O=C(COc1ccc(C(=O)c2ccc(F)cc2)cc1)NCc1ccc(F)cc1", "hERG current change (%, negative = inhibition) at 10uM": 4.49}, {"smiles": "Cc1ccc(S(=O)(=O)c2ccc(Oc3ccccc3)cc2)cc1", "hERG current change (%, negative = inhibition) at 10uM": 17.3}, {"smiles": "COc1ccc(CN2CCNC(=O)C2CC(=O)NCCCC2CCCC2)c(C)c1C", "note": "(stereo not shown)", "hERG current change (%, negative = inhibition) at 10uM": 5.39}, {"smiles": "Cc1cccc(NC(=O)CSc2nnc3ccc(-c4ccccn4)nn23)c1", "hERG current change (%, negative = inhibition) at 10uM": -2.59}, {"smiles": "COC(=O)CSc1snnc1-c1ccc(Cl)cc1Cl", "hERG current change (%, negative = inhibition) at 10uM": -2.62}, {"smiles": "COC(=O)NC(NS(=O)(=O)c1ccccc1)(C(=O)OC)C(F)(F)F", "note": "(stereo not shown)", "hERG current change (%, negative = inhibition) at 10uM": 3.94}, {"smiles": "COc1ccccc1NS(=O)(=O)c1cc(C(=O)NCc2ccncc2)ccc1C", "hERG current change (%, negative = inhibition) at 10uM": -28.8}, {"smiles": "C=CCn1c(=N)c(C(=O)NCCCOC)cc2c(=O)n3cc(C)ccc3nc21", "hERG current change (%, negative = inhibition) at 10uM": -57.3}, {"smiles": "COc1cc(OC)cc(C(=O)OCC(=O)c2cc(C)n(CC3CCCO3)c2C)c1", "note": "(stereo not shown)", "hERG current change (%, negative = inhibition) at 10uM": -39}, {"smiles": "COc1ccc(-c2[nH]c(-c3ccc(F)cc3)nc2SCC(=O)NCc2ccco2)cc1OC", "hERG current change (%, negative = inhibition) at 10uM": 18.8}, {"smiles": "Brc1ccc(Sc2cnc3ccccc3n2)cc1", "hERG current change (%, negative = inhibition) at 10uM": 5.28}, {"smiles": "COc1ccc([C@H]2CC(=O)C=C(c3cccc(OC(F)(F)F)c3)C2)cc1", "hERG current change (%, negative = inhibition) at 10uM": 5.2}, {"smiles": "OCC1(Cc2ccc(Cl)cc2)CCN(Cc2ccccc2F)CC1", "hERG current change (%, negative = inhibition) at 10uM": -69.2}, {"smiles": "CCOC(=O)Nc1cccc(NC(=O)c2ccccc2F)c1", "hERG current change (%, negative = inhibition) at 10uM": 7.84}, {"smiles": "CCCN(CC(=O)Nc1cc(Cl)ccc1Cl)C(=O)c1ccc(N2CCCC2=O)cc1", "hERG current change (%, negative = inhibition) at 10uM": -33}, {"smiles": "O=C(Nc1cc2c3c(c1)CC(=O)N3CCC2)c1ccc(Br)o1", "hERG current change (%, negative = inhibition) at 10uM": -34.3}, {"smiles": "O=C(NC1CC(=O)N(c2ccccc2)C1)C(=O)c1c[nH]c2ccccc12", "note": "(stereo not shown)", "hERG current change (%, negative = inhibition) at 10uM": -11.1}, {"smiles": "S=C(Nc1ccc(Nc2ccccc2)cc1)N1CCN(c2ncccn2)CC1", "hERG current change (%, negative = inhibition) at 10uM": 19.9}, {"smiles": "COc1ccc(/C=C(/NC(=O)c2cccc([N+](=O)[O-])c2)C(=O)O)cc1OC", "hERG current change (%, negative = inhibition) at 10uM": 13.2}, {"smiles": "CCN1CCN(S(=O)(=O)c2cc(OC)c(Cl)cc2OC)CC1", "hERG current change (%, negative = inhibition) at 10uM": 2.38}, {"smiles": "O=C(OCc1nc2ccccc2s1)C1CCN(C2=NS(=O)(=O)c3ccccc32)CC1", "hERG current change (%, negative = inhibition) at 10uM": -46.1}, {"smiles": "Cc1ccc(C(=O)N/C(=C/c2ccco2)C(=O)OCN2C(=O)c3ccccc3C2=O)cc1", "hERG current change (%, negative = inhibition) at 10uM": -34.8}, {"smiles": "C=C(C)C(=O)Oc1ccc(N2C(=O)CCC2=O)cc1", "hERG current change (%, negative = inhibition) at 10uM": 7.72}, {"smiles": "Cc1ccc(S(=O)(=O)N2CCCC2CNC(=O)c2ccccc2)cc1", "note": "(stereo not shown)", "hERG current change (%, negative = inhibition) at 10uM": -9.34}, {"smiles": "CC(=O)N1C=CN(C(C)=O)C(c2cn(C)c3ccccc23)C1c1cn(C)c2ccccc12", "note": "(stereo not shown)", "hERG current change (%, negative = inhibition) at 10uM": -15.5}, {"smiles": "CCOC(=O)c1[nH]c(C)c(/C(O)=C2\\C(=O)C(=O)N(CCN(C)C)C2c2cccc(OC)c2OC)c1C", "note": "(stereo not shown)", "hERG current change (%, negative = inhibition) at 10uM": 18}, {"smiles": "O=C(O)c1ccc(Cl)c(S(=O)(=O)NCc2cccnc2)c1", "hERG current change (%, negative = inhibition) at 10uM": 11}, {"smiles": "CS(=O)(=O)Nc1ccccc1C(=O)OCC(=O)N1CCC(c2ccccc2)=N1", "hERG current change (%, negative = inhibition) at 10uM": -18.1}, {"smiles": "CSc1ccccc1-c1nnc(-c2ccc(Cl)cc2)o1", "hERG current change (%, negative = inhibition) at 10uM": -2.93}, {"smiles": "COc1ccc(/C=N/Nc2ncnc3c2[nH]c2ccccc23)c(OC)c1OC", "hERG current change (%, negative = inhibition) at 10uM": -5.02}, {"smiles": "COc1ccc(S(=O)(=O)N/N=c2\\oc3c(OC)cccc3cc2S(=O)(=O)c2ccc(C)cc2)cc1OC", "hERG current change (%, negative = inhibition) at 10uM": 13.2}, {"smiles": "COCCN(CC(=O)NC1CCCCC1)C(=O)CSc1nc2ccccc2o1", "hERG current change (%, negative = inhibition) at 10uM": 1.81}, {"smiles": "COc1cccc(N2CCN(CC(=O)NC(=O)NCc3ccco3)CC2)c1", "hERG current change (%, negative = inhibition) at 10uM": 10.2}, {"smiles": "Cc1ccc(C2CC(c3cccs3)=NN2C(=O)CSC2=NN3CCCC(=O)N=C3S2)cc1", "note": "(stereo not shown)", "hERG current change (%, negative = inhibition) at 10uM": -24.2}, {"smiles": "Cc1cc(C)cc(NC(=O)Nc2ccc3ccccc3n2)c1", "hERG current change (%, negative = inhibition) at 10uM": 18.3}, {"smiles": "Cc1ccccc1OCC(=O)NNC(=O)Nc1ccc(Cl)cc1", "hERG current change (%, negative = inhibition) at 10uM": 0.251}, {"smiles": "CCOC(=O)CCNC(=O)CCc1nnc(CCCc2ccccc2)o1", "hERG current change (%, negative = inhibition) at 10uM": 14.3}, {"smiles": "COc1ccc(NC(=O)NNC(=O)c2ccc(Cl)cc2Cl)cc1OC", "hERG current change (%, negative = inhibition) at 10uM": 13}, {"smiles": "CCCc1c(C)nc2ccc(OC)cc2c1SCCC(=O)O", "hERG current change (%, negative = inhibition) at 10uM": 10.4}, {"smiles": "CCn1c(SCC(=O)Nc2cccc(NC(C)=O)c2)nnc1-c1ccco1", "hERG current change (%, negative = inhibition) at 10uM": 14.8}, {"smiles": "Cc1cc(C)n(CCC(=O)N/N=C/c2ccc(O)cc2)n1", "hERG current change (%, negative = inhibition) at 10uM": 14.4}, {"smiles": "Cc1cc(C)cc(NC(=O)CC2Oc3ccc(C)cc3NC2=O)c1", "note": "(stereo not shown)", "hERG current change (%, negative = inhibition) at 10uM": 14.3}, {"smiles": "Cc1ccc2c(c1)N(CCCC(=O)NCCCN1CCCCC1)C(=O)CO2", "hERG current change (%, negative = inhibition) at 10uM": -22.7}]}]}
